Consider 112 compounds from PubChem BioAssay AID488969 (Vanderbilt High Throughput Screening Facility, 2010).

The full ranking holds about 110,000 compounds; the median of “z-score” is about -0.1, and the highest 2% start at about 2. The list shows a part of the results. The source made the active and inactive calls.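 Rule for the calls: active = z-score in the third read window above 3 or below -3; inactive = the rest.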

The test concerns the target Metabotropic glutamate receptor 8 (Rattus norvegicus) (UniProt P70579). Description: mGluR8 Gi/Go-coupled signaling modulation – cell-based, rat, thallium flux, HTS, primary screen (AID 488969). Conditions: HEK293 rat mGluR8, GIRK (G protein-gated inwardly rectifying potassium channel) thallium flux, FluoZin2; at 10 µM; stronger effect = higher value; submaximal glutamate (EC20) added with thallium.
Chain of UniProt P70579 (P70579 whole entry, looked up): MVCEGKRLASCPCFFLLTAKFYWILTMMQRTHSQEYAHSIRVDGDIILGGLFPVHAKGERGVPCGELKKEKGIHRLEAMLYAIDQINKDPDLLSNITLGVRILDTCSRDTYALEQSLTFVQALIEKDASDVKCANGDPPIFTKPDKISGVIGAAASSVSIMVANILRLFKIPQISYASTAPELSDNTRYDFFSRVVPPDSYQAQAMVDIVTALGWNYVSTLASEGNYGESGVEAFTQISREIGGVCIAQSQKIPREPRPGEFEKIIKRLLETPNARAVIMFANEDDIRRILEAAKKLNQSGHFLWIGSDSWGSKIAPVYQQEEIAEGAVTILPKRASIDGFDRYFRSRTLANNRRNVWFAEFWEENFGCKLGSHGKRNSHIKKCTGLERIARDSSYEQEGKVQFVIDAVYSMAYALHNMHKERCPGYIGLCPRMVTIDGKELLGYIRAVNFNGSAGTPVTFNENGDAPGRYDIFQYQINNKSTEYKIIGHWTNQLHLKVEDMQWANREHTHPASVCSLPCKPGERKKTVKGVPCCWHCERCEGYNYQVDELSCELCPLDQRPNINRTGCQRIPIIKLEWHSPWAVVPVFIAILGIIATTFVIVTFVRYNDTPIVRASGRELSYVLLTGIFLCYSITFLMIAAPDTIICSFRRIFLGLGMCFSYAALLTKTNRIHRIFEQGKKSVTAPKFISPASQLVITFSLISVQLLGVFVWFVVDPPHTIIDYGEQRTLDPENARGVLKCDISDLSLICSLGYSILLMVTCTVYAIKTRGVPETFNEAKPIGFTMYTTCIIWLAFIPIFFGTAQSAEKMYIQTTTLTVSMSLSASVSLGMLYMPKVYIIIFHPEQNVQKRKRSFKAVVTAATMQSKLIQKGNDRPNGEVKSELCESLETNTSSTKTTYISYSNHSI
In turn, `O=C(N/N=C\c1ccc(OC(=O)c2cccs2)cc1)c1ccc(Cl)cc1` showed a z-score of 0.0356.

For the compound `CN(C)CCCNC(=O)/C=C/c1ccc2c(c1)OCO2`, the z-score is -0.0826.

Regarding `CC(=O)CCc1ccc(OCCCCn2cncn2)cc1`, the z-score is 0.306.

With `O=S(=O)(Nc1cccnc1)c1cc(Cl)ccc1Cl`, the z-score was -0.00571.

On to `CCCOC(=O)c1cc(-c2ccc(C=O)o2)ccc1Cl`, for which the z-score is -0.555.

In turn, `Cc1ccc(-c2csc3nc(SCC(N)=O)n(Cc4ccccc4)c(=O)c23)cc1` came in with a z-score of 1.22.

As for `O=C1OC(C(=O)Nc2nccs2)Cc2ccccc21` (configuration not stated), the z-score is -0.376.

For `CCOc1cc2[nH]c(=S)n(CCCC(=O)NCc3ccco3)c(=O)c2cc1OCC`, the z-score was -0.26.

Regarding `CCOC(=O)NC(NC(=S)Nc1ccccc1OC)C(Cl)(Cl)Cl` (configuration not stated), the z-score stood at 0.0524.

For `COc1ccc(-c2nncnn2)cc1`, the z-score came to 0.265.

Consider `Cc1cccc(-n2c(-c3ccco3)nc3nc4ccccc4nc32)c1`, for which the z-score is -0.0341.

`CCOc1ccc(OCC(=O)OCn2c(SC)nnc(C)c2=O)cc1`: the z-score was -0.577.

As for `CCOC(=O)Cn1nnc2c(sc3nc4c(c(-c5ccccc5)c32)CCC4)c1=O`, the z-score stood at 0.109.

`Fc1ccc(/C=N/n2c(-c3cccs3)n[nH]c2=S)cc1`: the z-score is active: 4.92.

`Oc1ccc2oc3c(c2c1)CCCC3`: the z-score was -0.132.

Regarding `CCN1C(=O)/C(=C/c2cccs2)S/C1=N\S(=O)(=O)c1ccc(C)cc1`, the z-score is -0.261.

On to `CC(NC(=O)c1ccco1)C(c1cccs1)N1CCN(c2ccccc2F)CC1` (configuration not stated), for which the z-score was -0.556.

For `O=C1OCCC1N1C(=O)c2ccccc2S1(=O)=O` (configuration not stated), the z-score is -1.76.

In turn, `Cc1onc(-c2ccccc2Cl)c1C(=O)N1CCN(c2cccc(Cl)c2)CC1` returned a z-score of 0.229.

On to `O=C(CCCc1nc2ccccc2s1)N1CCN(c2ccccc2F)CC1`, for which the z-score was -0.776.

With `CCn1c(=O)cc(SCC(=O)N2CCN(c3ccccc3F)CC2)c2ccccc21`, the z-score was -1.15.

On to `CCCCOc1ccc(-c2nnn(CC(=O)NCc3ccco3)n2)cc1`, for which the z-score was determined as 2.02.

As for `Cc1c(C2C(C#N)=C(N)N(c3ccccc3C#N)C3=C2C(=O)CCC3)cnn1C` (configuration not stated), the z-score is -0.0607.

Consider `CC(=O)N1CCN(c2ccc(NC(=O)c3ccc(N4CCCC4)c([N+](=O)[O-])c3)cc2Cl)CC1`, for which the z-score was -0.0828.

For the compound `CN(C(=O)c1cc2nc(-c3ccco3)cc(C(F)(F)F)n2n1)C1CCCCC1`, the z-score was -0.163.

Consider `COc1ccc(-c2cc3nnc(-c4ccccc4)nc3s2)cc1`, for which the z-score was 0.144.

As to `COc1ccc(S(=O)(=O)N2CCN(CC(=O)Nc3cccc(F)c3)CC2)cc1`, the z-score is -0.195.

As to `Cc1cc(C)nc(SCc2nnc(SCC(=O)NCc3ccco3)n2-c2ccccc2)n1`, the z-score was -0.73.

Take `O=C(NCC1CCCO1)c1nc2c(nnn2Cc2ccccc2Cl)c(=O)[nH]1` (configuration not stated): the z-score was -0.458.

In the case of `O=C(Nc1ccc(F)cc1)c1ccc(CSc2ccccc2)o1`, the z-score was -0.6.

Compound `CCOC(=O)C(/C(C)=N/NC(=O)C1CC1c1ccccc1)C(C)C` (configuration not stated) came in with a z-score of 0.0328.

In turn, `COc1ccc(NC(=O)CN(C)C(C)C(=O)N2CCCCC2)cc1` (configuration not stated) gave a z-score of 0.385.

`CN1C(=O)CC(NNC(=O)c2ccccc2)C1=O` (configuration not stated): the z-score is -0.163.

As to `C=CCn1c(SC(C)C(=O)NCCC2=CCCCC2)nc2ccccc2c1=O` (configuration not stated), the z-score was -0.6.

`C=CCNS(=O)(=O)c1ccc(OCC(=O)OC)cc1`: the z-score was found to be 0.201.

`COc1cc(C2c3c(oc4c(C)cc(C)cc4c3=O)C(=O)N2Cc2cccnc2)cc(OC)c1OC` (configuration not stated) had a z-score of 0.524.

Turning to `CC(C)(C)c1nc2ccccc2[nH]1`, the z-score is -0.0902.

For the compound `O=C(CCCC(=O)OCC(Cl)=C(Cl)Cl)Nc1cccc(F)c1`, the z-score is -0.293.

In the case of `CC(C)(C)c1ccc(C(=O)NCc2ccc(Cl)cc2)cc1`, the z-score was -0.0762.

Take `O=C(NCc1ccccc1C(F)(F)F)C1CC(c2ccccc2[N+](=O)[O-])=NO1` (configuration not stated): the z-score is -0.21.

Consider `Cn1c(=O)cc(OCC(=O)Nc2ccccn2)c2ccccc21`, for which the z-score is -0.376.

`BrC(=C\c1ccccc1)/C=N/N1CCN(c2ccccn2)CC1`: the z-score is -0.141.

Compound `O=C(c1ccncc1)N1CCN(C(=O)c2ccco2)CC1` yielded a z-score of 0.325.

In turn, `COc1ccc2[nH]c3nc(SC(C)C)nnc3c2c1` had a z-score of 0.0617.

As to `CCOC(=O)c1cnc2ccc(C)cc2c1Nc1ccc(N2CCOCC2)cc1`, the z-score is -0.272.

For the compound `COc1cnc(-c2ccccn2)nc1Oc1cccc(Cl)c1`, the z-score was -0.708.

`Cc1ccc(NC(=O)CSCC(=O)Nc2ccc(N3CCOCC3)c(Cl)c2)cc1` returned a z-score of 0.102.

With `Cc1csc(=NC(=O)c2ccccc2)n1Cc1ccco1`, the z-score is -0.784.

On to `Cc1noc(NS(=O)(=O)c2ccc(NC(=O)c3ccc(Br)o3)cc2)c1C`, for which the z-score was -0.272.

As for `O=C(CSc1nnc(-c2cccs2)n1-c1ccccc1)N1CCN(C(=O)c2ccco2)CC1`, the z-score is -2.78.

As for `CCOC(=O)CCc1c(C)c(C#N)c2nc3ccccc3n2c1-n1ccnc1C`, the z-score is -0.0505.

Regarding `Cc1c(O)ccc(/C(Cc2ccc3ccccc3n2)=N\O)c1O`, the z-score was -0.308.

With `CCCCCn1ccc(=N)cc1`, the z-score worked out at 1.99.

As to `Cc1cccc(/C=C2\CCC(=C3SCCCS3)C2=O)c1`, the z-score was determined as 0.246.

Turning to `O=C(NC1CCCCCCC1)NC1CCCCC1`, the z-score was 0.255.

With `COc1cc(C)c(Br)cc1S(=O)(=O)N1CCOCC1`, the z-score was -0.212.

For `COc1ccc(OCC(=O)Nc2cc3oc4ccccc4c3cc2OC)cc1`, the z-score is -0.347.

`CC(=O)Nc1ccc(N=Cc2ccc[nH]2)cc1`: the z-score worked out at 0.195.

As for `CSc1nnc(C)c(/C=C/Nc2ccc(C)cc2)n1`, the z-score was -0.226.

Turning to `O=C(Nc1ccc(SC(F)F)cc1)c1ccc2nccnc2c1`, the z-score is -0.51.

For the compound `CCN1CCCC(NC(=O)c2scc3c2CCCC3)C1` (configuration not stated), the z-score is -0.204.

On to `O=C(c1ccc(Cl)cc1)c1oc2ccccc2c1CS(=O)(=O)c1ccccc1`, for which the z-score was -0.000363.

With `CCN(CC)C(=O)Cn1cnc2c1c(=O)n(C)c(=O)n2C`, the z-score is -0.242.

Turning to `COc1ccc(N(CC(=O)Nc2nc3ccc(C)cc3s2)S(=O)(=O)c2c(C)nn(C)c2C)cc1`, the z-score was 2.44.

As to `CN(C(=O)CCN1C(=O)C(C)(C)Nc2ccccc21)c1ccccc1`, the z-score came to 0.0324.

In turn, `CCOC(=O)NC1(NC2CCCCC2)Oc2ccccc2O1` showed a z-score of 0.41.

On to `COCCOc1nc2c(c(=O)n(C)c(=O)n2C)n1Cc1cccc(OC)c1`, for which the z-score was -0.174.

Turning to `CCOC(=O)CSc1nnc(Cc2cc(=O)[nH]c(=O)[nH]2)n1-c1cccc(OC)c1`, the z-score is -0.125.

In the case of `CC1(C)[N+]([O-])=C2C(=[N+]([O-])C1(C)C)c1ccccc1/C2=N\O`, the z-score was found to be 0.0279.

Regarding `CC1(C)CC(=O)C2=C(C1)OC(N)=C(C#N)C21C(=O)N(CN2CCOCC2)c2ccccc21` (configuration not stated), the z-score was -0.00502.

As for `Cc1cc(OCC(=O)N[C@@H](Cc2ccccc2)c2nc3ccccc3[nH]2)ccc1Cl`, the z-score is -0.0561.

Compound `CN(C)/C=C(\C#N)C(=O)Nc1ccc(F)cc1` displayed a z-score of 0.23.

As for `Brc1ccccc1C1=Nn2c(nnc2-c2ccccc2)SC1`, the z-score was -1.33.

As for `Cc1cc(C)c(S(=O)(=O)N2CCCC(C(=O)NCCC3=CCCCC3)C2)c(C)c1` (configuration not stated), the z-score was -0.195.

With `N#Cc1c(N)c(C(=O)c2ccccc2)n2c1CCC2`, the z-score was -0.0593.

`Oc1c(C(c2ccco2)N2CCOCC2)sc2ncnn12` (configuration not stated): the z-score is -0.0272.

The compound `Cc1ccccc1CN(c1ccc(C(=O)NCCC2=CCCCC2)cc1)S(C)(=O)=O` registered a z-score of 0.0784.

As to `CC(=O)Nc1ccc(NS(=O)(=O)C(F)(F)F)cc1`, the z-score was found to be 0.785.

Turning to `CNC(=O)c1c(NC(NC(=O)c2ccco2)C(=O)c2ccc(Cl)cc2)sc2c1CCCC2` (configuration not stated), the z-score is -0.475.

For the compound `COc1ccc(NCc2nnc(SCC(=O)Nc3cc(C)cc(C)c3)o2)cc1`, the z-score turned out to be 0.0362.

Take `COc1cc2c(cc1OC)C(C(=O)NCc1ccco1)C(c1cccs1)N(C)C2=O` (configuration not stated): the z-score turned out to be 0.637.

In the case of `Cc1ccc(NC(=O)CS(=O)CC(=O)NC(C)CCc2ccco2)cc1Cl` (configuration not stated), the z-score is -0.455.

Take `CCOc1ccc(-c2c[n+](=O)c3c(n2[O-])CCCC3)c(OCC)c1`: the z-score is -0.712.

Regarding `CCOC(=O)Cn1c(CN2CCN(c3cccc(Cl)c3)CC2)nc2c1c(=O)[nH]c(=O)n2C`, the z-score came out at 0.0733.

For `O=C(Oc1ccc(=O)n(-c2ccccc2)n1)c1ccc(Cl)cc1`, the z-score was -1.58.

For the compound `Cc1cccc(C)c1NC(=O)C(c1ccccc1)N1CCC2(CC1)OCCO2` (configuration not stated), the z-score was -0.142.

As for `O=C(CSCc1cnn(-c2ccccc2)c1-n1cccc1)NCCN1CCOCC1`, the z-score was -0.215.

`Cc1ccc(C(=O)NCCc2nc3ccccc3[nH]2)cc1[N+](=O)[O-]` registered a z-score of 0.107.

For `Clc1cccc(OCCN2CCN(CCOc3cccc(Cl)c3)CC2)c1`, the z-score was determined as 0.21.

For the compound `COc1ccccc1CNC(=O)c1oc2ccc(S(=O)(=O)N3CCCC3)cc2c1C`, the z-score is -0.521.

The compound `COCCCNC(=O)Nc1ccc(Br)cc1Cl` showed a z-score of 0.0298.

Take `CC(C)(C)c1nc(CN2CCOCC2)ccc1O`: the z-score was determined as 0.965.

`O=C(c1ccccc1)c1ccc(CN2C(=O)c3ccccc3C2=O)o1`: the z-score is -0.422.

In the case of `CCOC(=O)Cn1c(=O)oc2cc(S(=O)(=O)NCCCc3ccccc3)ccc21`, the z-score is active: 3.36.

With `Cc1cc(C)c(C(=O)CC2(O)C(=O)Nc3ccccc32)cc1C` (configuration not stated), the z-score was -0.116.

`CCN(CC)C(=O)CSc1nc2ccccc2c(=O)n1-c1cccc(OC)c1`: the z-score was -2.06.

Regarding `COc1ccc(/C(N)=N/OC(=O)CSc2ccccc2)cc1`, the z-score is -0.955.

Turning to `CC(C)C(C(=O)C=[N+]=[N-])N1C(=O)c2ccccc2C1=O` (configuration not stated), the z-score was found to be 0.097.

Consider `O=C(Nc1ccccc1)c1n[nH]c(Cn2cncn2)n1`, for which the z-score is -0.138.

On to `Cc1cc(=O)oc2cc(OCC(=O)Nc3cccc(S(=O)(=O)N(C)C)c3)ccc12`, for which the z-score is -0.0464.

For `CCOC(=O)c1ccc(NC(=O)Nc2c(C)nn(C)c2C)cc1`, the z-score was -0.0137.

Consider `NS(=O)(=O)c1cccnc1Nc1ccc(Cl)c(Cl)c1`, for which the z-score was -0.00633.

As for `CC(C)N1C(=O)CCC1C(=O)N1CCCc2ccccc21` (configuration not stated), the z-score amounted to 0.347.

As to `Cc1ccc(S(=O)(=O)N(C)Cc2nc(-c3ccccn3)no2)cc1`, the z-score is -0.201.

As for `CCOC(=O)c1oc2cccc(O)c2c1C`, the z-score is -0.427.

In the case of `O=C1/C(=C/c2ccc(F)c(F)c2)CSc2sccc21`, the z-score was -0.895.

Regarding `CCOc1ccccc1C(=O)N/N=C/c1cccc2cccnc12`, the z-score was -0.542.

As for `CCc1nnc(NC(=O)CCN2C(=O)CCC2=O)s1`, the z-score worked out at 0.0672.

For `CC1CCN(c2ccccc2NC(=O)c2ccc(N3CCOCC3)c([N+](=O)[O-])c2)CC1`, the z-score was -0.0873.

For `O=C(Cn1nc(-c2ccccc2)nc1-c1ccccc1)OC1CCCCC1`, the z-score is -0.021.

In the case of `OC1(c2cccnc2)CCN(Cc2nnnn2C2CCCCC2)CC1`, the z-score is -0.566.

In the case of `O=C(CC(=O)N1CCN(c2ccccn2)CC1)Nc1ccc2nc3n(c(=O)c2c1)CCCCC3`, the z-score was -0.138.
